Experimental data: publication PMC4336329 (PLoS ONE, 2015)
Out of some 310,000 compounds screened, about 14,000 (4.5%) showed an effect of 50% or more. The effect is printed as a negative number. The list shows a part of the results.

Each compound was assayed against human ether-à-go-go-related gene (hERG) potassium channel (human, UniProt Q12809) (assay: primary screen, population patch clamp on CHO cells stably expressing hERG).
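Also: peak tail current of the secondary pulse compared with the same well before compound.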

Sequence of human ether-à-go-go-related gene (hERG) potassium channel (Q12809 whole entry, looked up): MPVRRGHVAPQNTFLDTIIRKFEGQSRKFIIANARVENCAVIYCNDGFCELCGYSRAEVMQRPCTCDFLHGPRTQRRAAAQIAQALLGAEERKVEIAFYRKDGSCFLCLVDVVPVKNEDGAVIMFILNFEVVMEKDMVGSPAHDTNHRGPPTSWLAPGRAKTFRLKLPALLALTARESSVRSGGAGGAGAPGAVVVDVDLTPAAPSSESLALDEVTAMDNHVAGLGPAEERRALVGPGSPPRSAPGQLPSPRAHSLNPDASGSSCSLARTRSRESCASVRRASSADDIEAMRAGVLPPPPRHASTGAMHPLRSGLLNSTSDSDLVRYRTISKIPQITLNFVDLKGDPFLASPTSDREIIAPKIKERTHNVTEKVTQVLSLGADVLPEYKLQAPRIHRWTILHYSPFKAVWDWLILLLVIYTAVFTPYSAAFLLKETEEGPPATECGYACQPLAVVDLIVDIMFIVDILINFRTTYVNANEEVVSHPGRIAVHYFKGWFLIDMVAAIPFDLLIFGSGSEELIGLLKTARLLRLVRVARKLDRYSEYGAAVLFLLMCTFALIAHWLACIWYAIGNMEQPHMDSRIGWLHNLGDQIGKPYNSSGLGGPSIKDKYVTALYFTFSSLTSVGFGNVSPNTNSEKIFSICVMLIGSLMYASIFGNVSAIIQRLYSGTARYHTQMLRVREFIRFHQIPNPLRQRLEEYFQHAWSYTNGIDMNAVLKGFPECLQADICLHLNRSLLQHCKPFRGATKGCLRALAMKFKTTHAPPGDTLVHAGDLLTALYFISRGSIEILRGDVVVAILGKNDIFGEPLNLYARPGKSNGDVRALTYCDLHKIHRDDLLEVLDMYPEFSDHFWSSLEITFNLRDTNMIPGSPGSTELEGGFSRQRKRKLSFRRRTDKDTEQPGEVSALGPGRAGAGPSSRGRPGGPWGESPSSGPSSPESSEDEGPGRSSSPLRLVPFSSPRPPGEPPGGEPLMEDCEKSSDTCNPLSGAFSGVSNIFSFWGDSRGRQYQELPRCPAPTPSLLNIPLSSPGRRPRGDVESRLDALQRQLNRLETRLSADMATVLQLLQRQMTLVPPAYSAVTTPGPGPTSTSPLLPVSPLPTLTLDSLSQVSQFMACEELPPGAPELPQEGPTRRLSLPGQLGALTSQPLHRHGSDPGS

| Compound | hERG current change (%, negative = inhibition) at 10uM [%] |
| --- | --- |
| Cl.Oc1ccc(-c2csc(Nc3cccc4ccccc34)n2)cc1O | 14.4 |
| O=C1NCCCC1C(=O)N1CCN(C(c2ccccc2)c2ccccc2)CC1 (stereo not drawn) | -2.25 |
| O=C(N/N=C/c1cccnc1)c1cc(-c2ccccc2)nc2ccccc12 | -22.1 |
| COc1ccc(OC)c(NC(=O)COC(=O)/C=C/c2ccccc2Cl)c1 | 0.775 |
| CC(C)(CN1CCCC1)NS(=O)(=O)c1ccccc1.Cl | 24.7 |
| CCN=c1scc(-c2ccccc2)n1/N=C/c1ccccn1 | -12.1 |
| CCOc1ccccc1C1C(C(=O)OC)=C(N)OC2=C1C(=O)CCC2 (stereo not drawn) | -4.55 |
| CCN(CC)Cc1c(C(=O)N/N=C(\C)c2ccncc2)nnn1-c1nonc1N | -80.3 |
| CCc1nc(Nc2ccccc2O)c2oc3ccccc3c2n1.Cl | -25.6 |
| CCOc1cc(/C=N/n2c(C)nnc2C)ccc1O | 7.63 |
| O=C(COC(=O)c1cc(S(=O)(=O)N2CCOCC2)c(Cl)cc1Cl)Nc1ncc(C(F)(F)F)cc1Cl | -0.837 |
| CC1CCN(S(=O)(=O)c2ccc(Cl)cc2Br)CC1 | -5.46 |
| Cc1cc(OCC(=O)N[C@@H](Cc2ccccc2)c2nc3ccccc3[nH]2)ccc1Cl | -1.88 |
| CC1CC(C)(C)NC(=S)N1CC(=O)NCc1ccc(F)cc1 (stereo not drawn) | 0.792 |
| CCC1CCCCN1S(=O)(=O)c1ccc(NC(=O)c2cccs2)cc1 (stereo not drawn) | -1.94 |
| Cc1cccc(NC(=O)CN2C(=O)S/C(=C\c3cc(C)n(C)c3C)C2=O)c1 | -10.7 |
| COc1ccccc1N1CCN(CC(=O)Nc2ccc(C)c(F)c2)CC1 | -23.1 |
| CC(C)CNC(=O)C1CCN(c2ccc(S(=O)(=O)N3CCOCC3)cc2[N+](=O)[O-])CC1 | -38.8 |
| CC1(C)Cc2ccccc2C2=C(C(=O)N3CCCCCC3)C(=O)C(=O)N21 | 23.2 |
| CCOc1cc(C(=O)CCC(=O)OCC(=O)N2c3ccccc3NC(=O)C2(C)C)ccc1O | -15.5 |
| COc1cc(NC(=O)CN2C(=O)C(c3ccccc3)=NC23CCCCCC3)cc(OC)c1 | 26.3 |
| Cc1ccc(C(=O)NCC(=O)N2CCN(S(=O)(=O)c3cccs3)CC2)s1 | -0.929 |

| Compound | hERG current change (%, negative = inhibition) at 10uM [%] |
| --- | --- |
| O=C(Nc1ccccc1)c1ccc(C(=O)Nc2ccccc2)nc1 | 26.2 |
| O=C(N/N=C/c1cc2c(cc1Br)OCO2)c1cccnc1 | 20.9 |
| COc1ccc(NC(=O)CN(C)CC(=O)NC(=O)NC2CCCCC2)cc1 | -9.26 |
| Cc1ccccc1N(CC(=O)NCCc1ccccc1)C(=O)c1ccc(N2CCCC2)nc1 | -10.5 |
| CC(Sc1nnc(Nc2ccccc2)s1)C(=O)Nc1nc(-c2ccccc2)cs1 (stereo not drawn) | 7.84 |
| COc1ccc(C(=O)C2CCN(CC(=O)Nc3ccc(OC)cc3OC)CC2)cc1 | -18.1 |
| S=C(NCCc1ccccc1)N1CCn2cccc2C1c1ccncc1 (stereo not drawn) | -36.3 |
| Cc1ccc(C)c(OCC(=O)NNC(=O)c2ccc(=O)[nH]c2)c1 | 9.29 |
| Cc1[nH]c2ccc(F)cc2c1CCN(Cc1ccco1)C(=S)NC(C)(C)C | 11.6 |
| O=C(Cc1cc(=O)oc2cc(O)ccc12)NC(Cc1ccc(Cl)cc1)C(=O)O (stereo not drawn) | 23.5 |
| COC(=O)c1nnn(CC(=O)NC(=O)Nc2cccc(Cl)c2C)c1C(=O)OC | -0.536 |
| CN(C)CCn1c2c(c(SCC(=O)Nc3cccc(C(F)(F)F)c3)nc1=O)CCCC2 | -68.8 |
| COc1cccc(OCc2nn[nH]n2)c1 | 21.2 |
| CCc1nnc(NS(=O)(=O)c2ccc(N/C=C(\C=O)c3nc4cc(Cl)ccc4o3)cc2)s1 | -15.8 |
| Cc1nn(Cc2nc(-c3cccs3)no2)c(C)c1Br | -0.547 |
| COc1cc(OC)cc(C(=O)N2CCN(C(=O)COc3ccc4ccccc4c3)CC2)c1 | -64.8 |
| CCCC(=O)N/N=C1\CS(=O)(=O)N(C)c2ccsc21 | 18.4 |
| CCOC(=O)c1oc2ccc(S(=O)(=O)N3CCC(C)CC3)cc2c1C | -6 |
| Fc1ccc(CSc2nnc(-c3cccs3)o2)cc1 | -14.4 |
| CCOc1cc(/C=C2/SC(=S)NC2=O)ccc1OC(=O)c1ccco1 | 20.6 |
| CC(=O)c1c(N2CCN(CCO)CC2)nc(=S)n(-c2ccccc2)c1C | 5.13 |
| COc1ccc(OC)c(NC(=O)CN(c2ccc(C(C)C)cc2)S(=O)(=O)c2c(C)noc2C)c1 | 2.13 |

| Compound | hERG current change (%, negative = inhibition) at 10uM [%] |
| --- | --- |
| COc1ccc(NC(=O)N2CCCC(c3ccccc3)C2)cc1 (stereo not drawn) | -19.4 |
| CCC(=NCC1CCCO1)c1c(O)n(-c2ccccc2)c(=O)[nH]c1=O (stereo not drawn) | -6.64 |
| O=C(NCC1CCCO1)c1sc2cc(Cl)ccc2c1Cl (stereo not drawn) | -6.32 |
| CCC(C)(C)NC(=O)c1ccc2c(c1)OCCO2 | 14.8 |
| O=C(COc1cccc2cccnc12)Nc1ccccc1 | -18.5 |
| CCCCc1nnc(SCC(=O)Nc2nccs2)n1CC | 4.93 |
| CN(C)c1ccc(/C=C2\CCCc3c2nc2ccccc2c3C(=O)O)cc1 | 15.3 |
| COc1ccc(Br)c(C(=O)Nc2ccc(F)cc2)c1 | -0.956 |
| O=C(CSc1nnc2n(C3CCCC3)c(=O)c3ccccc3n12)N1CCCCCC1 | -51.1 |
| O=C(Nc1ccc(Cl)c(Cl)c1)OCc1cnc(Cl)s1 | -1.93 |
| CCOC(=O)C1=C(C)N(C)C(=S)NC1c1ccc(Cl)cc1 (stereo not drawn) | -21.5 |
| COc1ccc(CC(=O)Nn2c(-c3ccccc3)nc3ccccc3c2=O)cc1 | -8.84 |
| CN(C)C(=O)c1ccccc1Sc1ccc(Cl)cc1Cl | -70.4 |
| CC(C)(C)NC(=O)C(=O)NNC(=O)C12CC3CC(CC(C3)C1)C2 | 14.6 |
| COC(=O)c1ccc(COC(=O)C2CC(O)CN2S(=O)(=O)c2ccc([N+](=O)[O-])cc2)cc1 (stereo not drawn) | -34.7 |
| Nc1nc(SCC(=O)Nc2ncc(C(F)(F)F)cc2Cl)n[nH]1 | 11.9 |
| CC(CCc1ccccc1)NC(C)C(O)c1ccc(O)cc1.Cl (stereo not drawn) | -65.3 |
| CCOP(=O)(OCC)OCC | 16.9 |
| Cc1cc(O)ccc1N/C=C(\C#N)c1nc2ccccc2o1 | 10.2 |
| O=C(c1cc2ncc(Br)cn2n1)N1CCOCC1 | 12.1 |
| COc1ccc(-c2cc(CCCC(=O)NCCc3cc(OC)ccc3OC)no2)cc1 | -6.49 |
| Cc1ccc2nc(C)cc(N/N=C/c3cccnc3)c2c1 | -4.35 |

| Compound | hERG current change (%, negative = inhibition) at 10uM [%] |
| --- | --- |
| Cc1ccccc1CSc1n[nH]c(NS(=O)(=O)c2ccccc2)n1 | 10.3 |
| Cc1ccc(-c2nnc(-c3ccccc3Br)o2)cc1 | -5.68 |
| O=C(C[n+]1cccc(NC(=O)c2ccccc2)c1)c1cccc([N+](=O)[O-])c1.[Br-] | -76.3 |
| CCOC(=O)N1CCC(N2C(=O)c3ccc(C(=O)Nc4cccc(OC)c4)cc3C2=O)CC1 | 10.6 |
| COc1ccc(NC(=O)c2cc(-c3ccc(C)cc3)on2)cc1OC | 19.4 |
| CCOc1ccc(S(=O)(=O)N(CC)CC(=O)N2CCOCC2)cc1C | 6.73 |
| COc1ccc(N(C)S(=O)(=O)c2cccc(C(=O)NC3CCCC(C)C3C)c2)cc1 (stereo not drawn) | -35 |
| COc1ccc(O)c(CN2CCN(CCc3ccccc3)C(CCO)C2)c1 (stereo not drawn) | -54.6 |
| CCCn1c(Sc2nc3c(c(=O)[nH]c(=O)n3C)n2CCC)nc2c1c(=O)[nH]c(=O)n2C | 6.39 |
| Cc1ccc(S(=O)(=O)N2CCN(C(=O)COC(=O)CCCOc3ccccc3)CC2)c(C)c1 | -8.13 |
| CN(C)c1cc[n+](CC(=O)c2cccs2)cc1.[Cl-] | 9.45 |
| O=[N+]([O-])c1ccc(Cl)cc1Sc1cccc2cccnc12 | 6.39 |
| COc1ccccc1N(C)S(=O)(=O)c1ccc(C)c(C(=O)NCc2ccccn2)c1 | -16.5 |
| c1cc2c3c(cccc3c1)NC1(CCC3(CC1)Nc1cccc4cccc(c14)N3)N2 | 17.8 |
| COc1ccc(NS(=O)(=O)c2cccc(C(=O)NCC3(N(C)C)CCCCC3)c2)cc1 | -40.6 |
| COCCCn1c(-c2ccco2)nc2ccccc2c1=O | -16 |
| Cc1cc(C)cc(N2C(=O)NC(=O)/C(=C\c3cccn3-c3ccccc3)C2=O)c1 | 2.96 |
| CC(C)NC(=S)NN=C1CCC(c2ccccc2)CC1 (stereo not drawn) | 12.3 |
| COc1ccc(NC(=O)Nc2nc3c(s2)CCCC3)cc1 | -26.8 |
| O=C(COC(=O)c1ccc(F)cc1F)NC1CC1 | 23 |
| O=C1N(Cc2cccc(Cl)c2)C[C@@H]2C[C@@H](c3ccccn3)N3CCC[C@@]123 | -18.5 |
